This is an account of results in paper PMC7819943, “Rice protein-binding microarrays: a tool to detect cis-acting elements near promoter regions in rice”.

The list shows a part of the results.

This experiment deals with T1, OsWOX13 (Oryza sativa, UniProt Q5QMM3 1-267).
T1 sequence: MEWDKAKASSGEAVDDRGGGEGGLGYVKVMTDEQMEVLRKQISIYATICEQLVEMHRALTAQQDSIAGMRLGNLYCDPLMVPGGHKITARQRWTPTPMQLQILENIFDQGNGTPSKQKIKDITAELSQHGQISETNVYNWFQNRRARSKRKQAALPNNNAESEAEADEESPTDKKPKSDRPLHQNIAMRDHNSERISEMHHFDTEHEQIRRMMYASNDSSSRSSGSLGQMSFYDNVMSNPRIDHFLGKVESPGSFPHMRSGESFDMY
Put plainly: protein-binding microarray (RPBM); PBS, 2% BSA, 51.3 ng/ul salmon testes DNA, 50 uM zinc acetate, 200 nM TF, 25 C, 1 h; high values mean tight binding. Particulars: protein: recombinant; tags: N-terminal polyhistidine and DsRed monomer fusion (pET32a); label: CyDye5-dUTP incorporated in the synthesized complementary strand; 3' TTTTT single-stranded linker to array surface; dsDNA, one strand shown. Put shortly:
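Transcription factors were each fused at the N-terminus to a polyhistidine tag plus DsRed and expressed in E. coli BL21-CodonPlus before Ni–NTA purification. Binding to a double-stranded custom Agilent array was carried out with 200 nM protein at 25 °C for 1 h in PBS, 2% BSA, salmon testes DNA and 50 µM zinc acetate. The binding signal is per-feature fluorescence intensity, in arbitrary units, on an Axon 4000B scanner.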
Consider “ATATGTAATTTGTTTTGTTTTAGTCTACGTTTAATAGTTCCGGAGTCACCTAGTGCAG”, for which the binding signal is 6560 fluorescence intensity (a.u.).

“ACTTCCAATTTTGACGTGAATTAAACACAGCCTACATCTCCGGAGTCACCTAGTGCAG”: the binding signal was 5840 fluorescence intensity (a.u.). On to “TATTTTAATTTTATTATTGTTATACGATTTAGTTAAGGTGCGGAGTCACCTAGTGCAG”, for which the binding signal is 6840 fluorescence intensity (a.u.).

In the case of “CATTCATATTGATGTTAATAAATTAATATAGATATATATGCGGAGTCACCTAGTGCAG”, the binding signal was 3590 fluorescence intensity (a.u.). Turning to “TCCACCAATCAGGATTGCAGGATATGAATGAGGCGAGATGCGGAGTCACCTAGTGCAG”, the binding signal was 14700 fluorescence intensity (a.u.). On to “TATAATTTATATGTATAGGCAGTCTCAGTATAATTTGGTCCGGAGTCACCTAGTGCAG”, for which the binding signal is 19000 fluorescence intensity (a.u.). For the sequence “ACAGTTTCAATCAGTTGTAAAACCAGGCGTTTGATGTGGGCGGAGTCACCTAGTGCAG”, the binding signal was 12500 fluorescence intensity (a.u.). For “ACCAAATTAGGCGTATCCAATCCAATCCTCCAAGCGAAGCCGGAGTCACCTAGTGCAG”, the binding signal was 7630 fluorescence intensity (a.u.). Then “TCTTTTAACTAATCAAAACCGGTCAACAATATGTCCCTCGCGGAGTCACCTAGTGCAG”, with 5410 fluorescence intensity (a.u.); and “ATATAATTATGAGCAAAAGAGATACATCTAATTGTGATCTCGGAGTCACCTAGTGCAG”, with 17000 fluorescence intensity (a.u.); and “TCTGATAACCACATGATTACGGCCCCGTCGACGCTGTGCACGGAGTCACCTAGTGCAG”, with 8630 fluorescence intensity (a.u.).

Consider “TTAGATTGAAATCGTATGGTGACAAAATTTGACAGATTCTCGGAGTCACCTAGTGCAG”, for which the binding signal was 36700 fluorescence intensity (a.u.).

Consider “AGACCTAATTACCACTACAGCCGCGACCTCGATTTTGTTTCGGAGTCACCTAGTGCAG”, for which the binding signal was 12300 fluorescence intensity (a.u.).

For the sequence “CATTAAATAAAAGATTTTCTAATCACCTGATCATTTGCTACGGAGTCACCTAGTGCAG”, the binding signal was 6820 fluorescence intensity (a.u.). Then “GTAGATTGGTAGCTAACTTTTCAGAATCTATAGAAACCACCGGAGTCACCTAGTGCAG”, with 42800 fluorescence intensity (a.u.). For “TCTCACAGATTTGCTTAATTTCTATATCTAAGCTGACTATCGGAGTCACCTAGTGCAG”, the binding signal is 10300 fluorescence intensity (a.u.). In the case of “TTAATTGCTATGTTTTGACCAGTCAACGCATAGGTCGTTTCGGAGTCACCTAGTGCAG”, the binding signal is 15500 fluorescence intensity (a.u.). In the case of “GGTGCTTGATTAATACAGCTTTTCAATTTTAAGCTGGGTGCGGAGTCACCTAGTGCAG”, the binding signal is 23100 fluorescence intensity (a.u.). Turning to “ATTTGATCCAAATTATATGGTTATTAATCAAATCCCATAGCGGAGTCACCTAGTGCAG”, the binding signal is 10200 fluorescence intensity (a.u.).

For “TATTAGAAATAATTATCATGAAAGGCATAATCTCCTCGAACGGAGTCACCTAGTGCAG”, the binding signal was 3800 fluorescence intensity (a.u.). For “TCCAATGATTGTGTGATAATAGGAGCATATAATCCCAGATCGGAGTCACCTAGTGCAG”, the binding signal is 35100 fluorescence intensity (a.u.).

As to “GGGAGATAATGAGAAGATTTTGTGGTTTCTTTTGGTGCCCCGGAGTCACCTAGTGCAG”, the binding signal is 3770 fluorescence intensity (a.u.). Take “GATATTGATTTGGTCATCAACCTCAAACTCCGAGAAGAGGCGGAGTCACCTAGTGCAG”: the binding signal is 32600 fluorescence intensity (a.u.).

“ACGAATCTTTTAAGCCTAATTAATCCGTCATTAGCACATGCGGAGTCACCTAGTGCAG”: the binding signal is 3560 fluorescence intensity (a.u.). Regarding “CAGATTAACGTTAATATAGGAGTAGTTAAATAATGCATTTCGGAGTCACCTAGTGCAG”, the binding signal was 10600 fluorescence intensity (a.u.). With “TATAACAAATGAATGAATTTGATGTATATTTGGTTTGGAACGGAGTCACCTAGTGCAG”, the binding signal was 7530 fluorescence intensity (a.u.). Then “TAATTTGCATTCATCACTGCTGATTGAGACGGTGACAACTCGGAGTCACCTAGTGCAG”, with 24600 fluorescence intensity (a.u.); and “TAAGATAATATAGATAGATGGATAAATACATCAGGAGTCTCGGAGTCACCTAGTGCAG”, with 9040 fluorescence intensity (a.u.); and “CACGGTAATTACTACTACCACTACAGCAGCAGCCAAAACCCGGAGTCACCTAGTGCAG”, with 18200 fluorescence intensity (a.u.). Take “CCCATAATTTCACCACCAAACACATCCATGTGCATTGGAACGGAGTCACCTAGTGCAG”: the binding signal is 6210 fluorescence intensity (a.u.). “TTCCACTAATTAATCAGGTACTGTGTGATGATCGTGTTGACGGAGTCACCTAGTGCAG”: the binding signal was 20100 fluorescence intensity (a.u.).

“CGCATTTAATTAATTTAGCTTGCATTTCAATTCAAATTTACGGAGTCACCTAGTGCAG”: the binding signal was 20400 fluorescence intensity (a.u.). Then “ATTAACTTGAAGTATATATTGATTTGTTACCCCGCTAGGCCGGAGTCACCTAGTGCAG”, with 9740 fluorescence intensity (a.u.). Then “TTATTTAACTACATTAAATTGTTGATCATGCTAGTTATTACGGAGTCACCTAGTGCAG”, with 7560 fluorescence intensity (a.u.); and “TACCATATCTTGGCCGTTGATTAGATGCAATCTAACGGCTCGGAGTCACCTAGTGCAG”, with 4580 fluorescence intensity (a.u.).

With “TTGATAAATTATATGGTACGATTTATTTAAAGTTGCGTGCCGGAGTCACCTAGTGCAG”, the binding signal is 25000 fluorescence intensity (a.u.). Then “GGCCGTTAATTTGCCGTCAAGGAGCCACCATGGCACGAGACGGAGTCACCTAGTGCAG”, with 14600 fluorescence intensity (a.u.); and “TTTGTTATAATTGATATTTAATTAATCATATGGTAATTACCGGAGTCACCTAGTGCAG”, with 27800 fluorescence intensity (a.u.); and “TATATTGATGATTACTTTCTGATGCAATTGGCTGTGCAGTCGGAGTCACCTAGTGCAG”, with 40500 fluorescence intensity (a.u.).

Consider “TCTTGATTATCGGTGTGGCAGTGGCAGTTCAGTGGCACTGCGGAGTCACCTAGTGCAG”, for which the binding signal was 14700 fluorescence intensity (a.u.). Consider “AGAAATTTATCGACTACATTGATTTGGATCGATGTTGAAGCGGAGTCACCTAGTGCAG”, for which the binding signal was 11500 fluorescence intensity (a.u.). In the case of “TAATAATAATAATAATGCAAATTACCAAAATATAAGCCCACGGAGTCACCTAGTGCAG”, the binding signal is 6280 fluorescence intensity (a.u.).
